Reference: the supplement of paper PMC8728848
The list shows a part of the results.

Key:
Experiment in all cases: glycan array binding signal (z-score within array); higher = stronger binding
Conditions in all cases: glycan notation: IUPAC condensed, linker removed
[1] = molecular target: GlcNAc(b1-3)Gal(b1-3)GalNAc
Method in brief: (§1)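 Columns mapping to the same glycan were averaged after glycan names were converted to IUPAC-condensed notation. The data come from 3228 arrays in the Consortium for Functional Glycomics database, limited to those with an available protein sequence. Binding is reported as a within-array Z-score averaged across arrays of one protein sequence and across linkers.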

GlcNAc(b1-3)Gal(b1-4)Glc = molecular target: GlcNAc(b1-3)Gal(b1-4)Glc
Method in brief: as §1

[2] = molecular target: GlcNAc(b1-3)Gal(b1-4)GlcNAc
Method in brief: as §1

[3] = molecular target: GlcNAc(b1-3)Gal(b1-4)GlcNAc(b1-2)Man(a1-3)[GlcNAc(b1-3)Gal(b1-4)GlcNAc(b1-2)Man(a1-6)]Man(b1-4)GlcNAc(b1-4)GlcNAc
Method in brief: as §1

[4] = molecular target: GlcNAc(b1-3)Gal(b1-4)GlcNAc(b1-2)Man(a1-3)[GlcNAc(b1-3)Gal(b1-4)GlcNAc(b1-2)Man(a1-6)]Man(b1-4)GlcNAc(b1-4)[Fuc(a1-6)]GlcNAc
Method in brief: as §1

[5] = molecular target: GlcNAc(b1-3)Gal(b1-4)GlcNAc(b1-2)[GlcNAc(b1-3)Gal(b1-4)GlcNAc(b1-6)]Man(a1-6)[GlcNAc(b1-3)Gal(b1-4)GlcNAc(b1-2)Man(a1-3)]Man(b1-4)GlcNAc(b1-4)GlcNAc
Method in brief: as §1

[6] = molecular target: GlcNAc(b1-3)Gal(b1-4)GlcNAc(b1-3)Gal(b1-4)GlcNAc
Method in brief: as §1

[7] = molecular target: GlcNAc(b1-3)Gal(b1-4)GlcNAc(b1-3)Gal(b1-4)GlcNAc(b1-2)Man(a1-3)[GlcNAc(b1-3)Gal(b1-4)GlcNAc(b1-3)Gal(b1-4)GlcNAc(b1-2)Man(a1-6)]Man(b1-4)GlcNAc(b1-4)GlcNAc
Method in brief: as §1

[8] = molecular target: GlcNAc(b1-3)Gal(b1-4)GlcNAc(b1-3)Gal(b1-4)GlcNAc(b1-2)Man(a1-3)[GlcNAc(b1-3)Gal(b1-4)GlcNAc(b1-3)Gal(b1-4)GlcNAc(b1-2)Man(a1-6)]Man(b1-4)GlcNAc(b1-4)[Fuc(a1-6)]GlcNAc
Method in brief: as §1

[9] = molecular target: GlcNAc(b1-3)Gal(b1-4)GlcNAc(b1-3)Gal(b1-4)GlcNAc(b1-2)[GlcNAc(b1-3)Gal(b1-4)GlcNAc(b1-3)Gal(b1-4)GlcNAc(b1-6)]Man(a1-6)[GlcNAc(b1-3)Gal(b1-4)GlcNAc(b1-3)Gal(b1-4)GlcNAc(b1-2)Man(a1-3)]Man(b1-4)GlcNAc(b1-4)[Fuc(a1-6)]GlcNAc
Method in brief: as §1

[10] = molecular target: GlcNAc(b1-3)Gal(b1-4)GlcNAc(b1-3)Gal(b1-4)GlcNAc(b1-3)Gal(b1-4)GlcNAc(b1-2)Man(a1-3)[GlcNAc(b1-3)Gal(b1-4)GlcNAc(b1-3)Gal(b1-4)GlcNAc(b1-3)Gal(b1-4)GlcNAc(b1-2)Man(a1-6)]Man(b1-4)GlcNAc(b1-4)GlcNAc
Method in brief: as §1

[11] = molecular target: GlcNAc(b1-3)Gal(b1-4)GlcNAc(b1-3)Gal(b1-4)GlcNAc(b1-3)Gal(b1-4)GlcNAc(b1-2)Man(a1-3)[GlcNAc(b1-3)Gal(b1-4)GlcNAc(b1-3)Gal(b1-4)GlcNAc(b1-3)Gal(b1-4)GlcNAc(b1-2)Man(a1-6)]Man(b1-4)GlcNAc(b1-4)[Fuc(a1-6)]GlcNAc
Method in brief: as §1

[12] = molecular target: GlcNAc(b1-3)Gal(b1-4)GlcNAc(b1-3)Gal(b1-4)GlcNAc(b1-3)Gal(b1-4)GlcNAc(b1-2)[GlcNAc(b1-3)Gal(b1-4)GlcNAc(b1-3)Gal(b1-4)GlcNAc(b1-3)Gal(b1-4)GlcNAc(b1-6)]Man(a1-6)[GlcNAc(b1-3)Gal(b1-4)GlcNAc(b1-3)Gal(b1-4)GlcNAc(b1-3)Gal(b1-4)GlcNAc(b1-2)Man(a1-3)]Man(b1-4)GlcNAc(b1-4)[Fuc(a1-6)]GlcNAc
Method in brief: as §1

[13] = molecular target: GlcNAc(b1-3)Gal(b1-4)GlcNAc(b1-3)Gal(b1-4)GlcNAc(b1-3)Gal(b1-4)GlcNAc(b1-3)Gal(b1-4)GlcNAc(b1-2)Man(a1-3)[GlcNAc(b1-3)Gal(b1-4)GlcNAc(b1-3)Gal(b1-4)GlcNAc(b1-3)Gal(b1-4)GlcNAc(b1-3)Gal(b1-4)GlcNAc(b1-2)Man(a1-6)]Man(b1-4)GlcNAc(b1-4)GlcNAc
Method in brief: as §1

[14] = molecular target: GlcNAc(b1-3)Gal(b1-4)GlcNAc(b1-3)Gal(b1-4)GlcNAc(b1-3)Gal(b1-4)GlcNAc(b1-3)Gal(b1-4)GlcNAc(b1-2)Man(a1-3)[GlcNAc(b1-3)Gal(b1-4)GlcNAc(b1-3)Gal(b1-4)GlcNAc(b1-3)Gal(b1-4)GlcNAc(b1-3)Gal(b1-4)GlcNAc(b1-2)Man(a1-6)]Man(b1-4)GlcNAc(b1-4)[Fuc(a1-6)]GlcNAc
Method in brief: as §1

[15] = molecular target: GlcNAc(b1-3)Gal(b1-4)GlcNAc(b1-3)Gal(b1-4)GlcNAc(b1-3)Gal(b1-4)GlcNAc(b1-3)Gal(b1-4)GlcNAc(b1-2)[GlcNAc(b1-3)Gal(b1-4)GlcNAc(b1-3)Gal(b1-4)GlcNAc(b1-3)Gal(b1-4)GlcNAc(b1-3)Gal(b1-4)GlcNAc(b1-6)]Man(a1-6)[GlcNAc(b1-3)Gal(b1-4)GlcNAc(b1-3)Gal(b1-4)GlcNAc(b1-3)Gal(b1-4)GlcNAc(b1-3)Gal(b1-4)GlcNAc(b1-2)Man(a1-3)]Man(b1-4)GlcNAc(b1-4)[Fuc(a1-6)]GlcNAc
Method in brief: as §1

[16] = molecular target: GlcNAc(b1-3)Gal(b1-4)GlcNAc(b1-3)Gal(b1-4)GlcNAc(b1-3)GalNAc
Method in brief: as §1

[17] = molecular target: GlcNAc(b1-3)Gal(b1-4)GlcNAc(b1-3)GalNAc
Method in brief: as §1

[18] = molecular target: GlcNAc(b1-3)Gal(b1-4)GlcNAc(b1-3)[GlcNAc(b1-3)Gal(b1-4)GlcNAc(b1-3)]GalNAc
Method in brief: as §1

[19] = molecular target: GlcNAc(b1-3)Gal(b1-4)GlcNAc(b1-6)[Gal(b1-3)]GalNAc
Method in brief: as §1

[20] = molecular target: GlcNAc(b1-3)Gal(b1-4)GlcNAc(b1-6)[GlcNAc(b1-3)Gal(b1-3)]GalNAc
Method in brief: as §1

[21] = molecular target: GlcNAc(b1-3)Gal(b1-4)GlcNAc(b1-6)[GlcNAc(b1-3)]Gal(b1-4)GlcNAc
Method in brief: as §1

GlcNAc(b1-3)GalNAc = molecular target: GlcNAc(b1-3)GalNAc
Method in brief: as §1

GlcNAc(b1-3)Man = molecular target: GlcNAc(b1-3)Man
Method in brief: as §1

[22] = molecular target: GlcNAc(b1-3)[GlcNAc(b1-4)][GlcNAc(b1-6)]GlcNAc
Method in brief: as §1

[23] = molecular target: GlcNAc(b1-3)[GlcNAc(b1-6)]Gal(b1-4)GlcNAc
Method in brief: as §1

[24] = molecular target: GlcNAc(b1-3)[GlcNAc(b1-6)]GalNAc
Method in brief: as §1

[25] = molecular target: GlcNAc(b1-4)Gal(b1-4)GlcNAc
Method in brief: as §1

GlcNAc(b1-4)GlcNAc = molecular target: GlcNAc(b1-4)GlcNAc
Method in brief: as §1

[26] = molecular target: GlcNAc(b1-4)GlcNAc(b1-4)GlcNAc
Method in brief: as §1

[27] = molecular target: GlcNAc(b1-4)GlcNAc(b1-4)GlcNAc(b1-4)GlcNAc(b1-4)GlcNAc
Method in brief: as §1

[28] = molecular target: GlcNAc(b1-4)GlcNAc(b1-4)GlcNAc(b1-4)GlcNAc(b1-4)GlcNAc(b1-4)GlcNAc
Method in brief: as §1

[29] = molecular target: GlcNAc(b1-4)[GlcNAc(b1-6)]GalNAc
Method in brief: as §1

[30] = molecular target: GlcNAc(b1-6)Gal(b1-4)GlcNAc
Method in brief: as §1

GlcNAc(b1-6)GalNAc = molecular target: GlcNAc(b1-6)GalNAc
Method in brief: as §1

[31] = molecular target: GlcNAc6S(b1-3)Gal(b1-4)GlcNAc
Method in brief: as §1

Kdn(a2-3)Gal(b1-3)GalNAc = molecular target: Kdn(a2-3)Gal(b1-3)GalNAc
Method in brief: as §1

Kdn(a2-3)Gal(b1-3)GlcNAc = molecular target: Kdn(a2-3)Gal(b1-3)GlcNAc
Method in brief: as §1

Kdn(a2-3)Gal(b1-4)Glc = molecular target: Kdn(a2-3)Gal(b1-4)Glc
Method in brief: as §1

Kdn(a2-3)Gal(b1-4)GlcNAc = molecular target: Kdn(a2-3)Gal(b1-4)GlcNAc
Method in brief: as §1

[32] = molecular target: Kdn(a2-3)Gal(b1-4)[Fuc(a1-3)]GlcNAc
Method in brief: as §1

Kdn(a2-6)Gal(b1-4)GlcNAc = molecular target: Kdn(a2-6)Gal(b1-4)GlcNAc
Method in brief: as §1

[33] = molecular target: Man(a1-2)Man(a1-2)Man(a1-3)Man
Method in brief: as §1

[34] = molecular target: Man(a1-2)Man(a1-2)Man(a1-6)[Man(a1-3)]Man
Method in brief: as §1

Man(a1-2)Man(a1-3)Man = molecular target: Man(a1-2)Man(a1-3)Man
Method in brief: as §1

B1: AFCNVH (Aspergillus fumigatus) (protein)
chain: MSLRGFHTTCDTIVLKDKHILSSRCKRPDGTYSFSEIDLNDCLGNNNGKFVWGGESFVDSASQVNLALEGGEGRPMLHAQLNDWHGSVQSASVNLGECIQNEAGGLEYMHC
- glycan array binding signal (z-score) [1]: -0.412
- glycan array binding signal (z-score) (GlcNAc(b1-3)Gal(b1-4)Glc): -0.196
- glycan array binding signal (z-score) [2]: 1.25
- glycan array binding signal (z-score) [3]: 1.64
- glycan array binding signal (z-score) [4]: 0.734
- glycan array binding signal (z-score) [5]: 1.43
- glycan array binding signal (z-score) [6]: 0.992
- glycan array binding signal (z-score) [7]: 1.19
- glycan array binding signal (z-score) [8]: 1.68
- glycan array binding signal (z-score) [9]: 3.73
- glycan array binding signal (z-score) [10]: 4.24
- glycan array binding signal (z-score) [11]: 1.59
- glycan array binding signal (z-score) [12]: 3.78
- glycan array binding signal (z-score) [13]: 2.25
- glycan array binding signal (z-score) [14]: 1.62
- glycan array binding signal (z-score) [15]: 4.73
- glycan array binding signal (z-score) [16]: -0.352
- glycan array binding signal (z-score) [17]: -0.45
- glycan array binding signal (z-score) [18]: -0.369
- glycan array binding signal (z-score) [19]: -0.642
- glycan array binding signal (z-score) [20]: -0.209
- glycan array binding signal (z-score) [21]: 1.68
- glycan array binding signal (z-score) (GlcNAc(b1-3)GalNAc): -0.376
- glycan array binding signal (z-score) (GlcNAc(b1-3)Man): -0.213
- glycan array binding signal (z-score) [22]: -0.338
- glycan array binding signal (z-score) [23]: 3.67
- glycan array binding signal (z-score) [24]: 0.421
- glycan array binding signal (z-score) [25]: -0.236
- glycan array binding signal (z-score) (GlcNAc(b1-4)GlcNAc): 2.07
- glycan array binding signal (z-score) [26]: 3.22
- glycan array binding signal (z-score) [27]: 3.83
- glycan array binding signal (z-score) [28]: 3.6
- glycan array binding signal (z-score) [29]: 1.64
- glycan array binding signal (z-score) [30]: 2.8
- glycan array binding signal (z-score) (GlcNAc(b1-6)GalNAc): 1.1
- glycan array binding signal (z-score) [31]: 1.19
- glycan array binding signal (z-score) (Kdn(a2-3)Gal(b1-3)GalNAc): -0.446
- glycan array binding signal (z-score) (Kdn(a2-3)Gal(b1-3)GlcNAc): -0.584
- glycan array binding signal (z-score) (Kdn(a2-3)Gal(b1-4)Glc): -0.406
- glycan array binding signal (z-score) (Kdn(a2-3)Gal(b1-4)GlcNAc): -0.378
- glycan array binding signal (z-score) [32]: -0.455
- glycan array binding signal (z-score) (Kdn(a2-6)Gal(b1-4)GlcNAc): -0.094
- glycan array binding signal (z-score) [33]: -0.188
- glycan array binding signal (z-score) [34]: -0.495
- glycan array binding signal (z-score) (Man(a1-2)Man(a1-3)Man): -0.451
